In PMC9911399, “Two distinct binding modes provide the RNA-binding protein RbFox with extraordinary sequence specificity”:
Substitutions are numbered along the chain they refer to; changes in the protein carry UniProt numbers. Some of the results follow.

B1: ACUCCUU (DNA:RNA)
RNA: GGGAGACCGGAAUUCAGAUUGUCCACUCCUUUUAAAUCCCGUCGUAGCCACCA
DNA 1: CAATCTGAATTCCGGTCTCCC
DNA 2: TGGTGGCTACGACGGGATT
B2: UUUACGU (DNA:RNA)
RNA: B1 RNA with A25U, C26U, C28A, U30G
DNA 1: CAATCTGAATTCCGGTCTCCC
DNA 2: TGGTGGCTACGACGGGATT
B3: UGGAGCA (DNA:RNA)
RNA: GGGAGACCGGAAUUCAGAUUGUCCUGGAGCAUUAAAUCCCGUCGUAGCCACCA
DNA 1: CAATCTGAATTCCGGTCTCCC
DNA 2: TGGTGGCTACGACGGGATT
B4: UGCUCAU (DNA:RNA)
RNA: B1 RNA with A25U, C26G, U27C, C28U, U30A
DNA 1: CAATCTGAATTCCGGTCTCCC
DNA 2: TGGTGGCTACGACGGGATT
B5: CUAGCGU (DNA:RNA)
RNA: B1 RNA with A25C, C26U, U27A, C28G, U30G
DNA 1: CAATCTGAATTCCGGTCTCCC
DNA 2: TGGTGGCTACGACGGGATT
B6: AGCGCCC (DNA:RNA)
RNA: B1 RNA with C26G, U27C, C28G, U30C, U31C
DNA 1: CAATCTGAATTCCGGTCTCCC
DNA 2: TGGTGGCTACGACGGGATT
B7: CCGCGAA (DNA:RNA)
RNA: B3 RNA with U25C, G26C, A28C, C30A
DNA 1: CAATCTGAATTCCGGTCTCCC
DNA 2: TGGTGGCTACGACGGGATT
B8: CUGGAUU (DNA:RNA)
RNA: B1 RNA with A25C, C26U, U27G, C28G, C29A
DNA 1: CAATCTGAATTCCGGTCTCCC
DNA 2: TGGTGGCTACGACGGGATT
B9: UGGUCGU (DNA:RNA)
RNA: B3 RNA with A28U, G29C, C30G, A31U
DNA 1: CAATCTGAATTCCGGTCTCCC
DNA 2: TGGTGGCTACGACGGGATT
B10: UAUAGCC (DNA:RNA)
RNA: B3 RNA with G26A, G27U, A31C
DNA 1: CAATCTGAATTCCGGTCTCCC
DNA 2: TGGTGGCTACGACGGGATT
B11: UGUCCCU (DNA:RNA)
RNA: B1 RNA with A25U, C26G, U30C
DNA 1: CAATCTGAATTCCGGTCTCCC
DNA 2: TGGTGGCTACGACGGGATT
B12: GUCUUAU (DNA:RNA)
RNA: B1 RNA with A25G, C26U, U27C, C28U, C29U, U30A
DNA 1: CAATCTGAATTCCGGTCTCCC
DNA 2: TGGTGGCTACGACGGGATT
B13: ACGAGGU (DNA:RNA)
RNA: B1 RNA with U27G, C28A, C29G, U30G
DNA 1: CAATCTGAATTCCGGTCTCCC
DNA 2: TGGTGGCTACGACGGGATT
B14: GGCGGGG (DNA:RNA)
RNA: B3 RNA with U25G, G27C, A28G, C30G, A31G
DNA 1: CAATCTGAATTCCGGTCTCCC
DNA 2: TGGTGGCTACGACGGGATT
B15: GUACUAG (DNA:RNA)
RNA: B1 RNA with A25G, C26U, U27A, C29U, U30A, U31G
DNA 1: CAATCTGAATTCCGGTCTCCC
DNA 2: TGGTGGCTACGACGGGATT
B16: GUAAAUU (DNA:RNA)
RNA: B1 RNA with A25G, C26U, U27A, C28A, C29A
DNA 1: CAATCTGAATTCCGGTCTCCC
DNA 2: TGGTGGCTACGACGGGATT
B17: CGUAGGU (DNA:RNA)
RNA: B3 RNA with U25C, G27U, C30G, A31U
DNA 1: CAATCTGAATTCCGGTCTCCC
DNA 2: TGGTGGCTACGACGGGATT
B18: UGGGUUA (DNA:RNA)
RNA: B3 RNA with A28G, G29U, C30U
DNA 1: CAATCTGAATTCCGGTCTCCC
DNA 2: TGGTGGCTACGACGGGATT
B19: AGGGAGA (DNA:RNA)
RNA: B3 RNA with U25A, A28G, G29A, C30G
DNA 1: CAATCTGAATTCCGGTCTCCC
DNA 2: TGGTGGCTACGACGGGATT
B20: UCCAAGG (DNA:RNA)
RNA: B3 RNA with G26C, G27C, G29A, C30G, A31G
DNA 1: CAATCTGAATTCCGGTCTCCC
DNA 2: TGGTGGCTACGACGGGATT

molecular target: T1, RBFOX1 RRM (Homo sapiens, UniProt Q9NWB1 109-208); experiment: EMSA; HiTS-Eq, 1 nM pool, 10 min; buffer printed only for the single-RNA assays: 10 mM Tris pH 7.5, 150 mM NaCl, 3.4 mM EDTA, 0.001% NP-40, 30 C; details: tags: His6 N-terminal (pET28a); label: 5' 32P
T1 sequence: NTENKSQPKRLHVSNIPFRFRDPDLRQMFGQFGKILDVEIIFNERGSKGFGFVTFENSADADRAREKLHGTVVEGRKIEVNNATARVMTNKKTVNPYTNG
Procedure, shortened: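 A pool of RNA with 7 randomized nucleotides, 5′-radiolabelled and with DNA-annealed flanks, was equilibrated at 1 nM for 10 min in 50 µL with purified RbFox RRM, wild type or mutant, across increasing protein concentrations. Free RNA was separated by 8% native PAGE, excised, reverse-transcribed, barcoded by PCR and sequenced. Relative association constants were obtained from read-count changes of each RNA species versus the control reaction and normalised to the cognate motif.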

Row | Binder | binding signal
1 | B1 | 0.000366 KA relative to UGCAUGU
2 | B2 | 0.0106 KA relative to UGCAUGU
3 | B3 | 0.0243 KA relative to UGCAUGU
4 | B4 | 0.0162 KA relative to UGCAUGU
5 | B5 | 0.0098 KA relative to UGCAUGU
6 | B6 | 0.00884 KA relative to UGCAUGU
7 | B7 | 0.0107 KA relative to UGCAUGU
8 | B8 | 0.018 KA relative to UGCAUGU
9 | B9 | 0.0197 KA relative to UGCAUGU
10 | B10 | 0.00159 KA relative to UGCAUGU
11 | B11 | 0.0126 KA relative to UGCAUGU
12 | B12 | 0.00585 KA relative to UGCAUGU
13 | B13 | 0.0133 KA relative to UGCAUGU
14 | B14 | 0.0135 KA relative to UGCAUGU
15 | B15 | 0.00891 KA relative to UGCAUGU
16 | B16 | 0.0031 KA relative to UGCAUGU
17 | B17 | 0.00972 KA relative to UGCAUGU
18 | B18 | 0.0229 KA relative to UGCAUGU
19 | B19 | 0.018 KA relative to UGCAUGU
20 | B20 | 0.00701 KA relative to UGCAUGU
